The values that follow come from the supplement of paper PMC11417369.

± gives the standard deviation of the averaged measurements. The list shows a part of the results.

The assay concerns PfAP2-LT AP2 domain (GST-tagged). The assay can be described thus: gcPBM binding intensity (ln(normalized median fluorescence intensity)); higher = stronger DNA binding. An outline of the steps: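 After 1 h on an Agilent 4 × 180k array of primer-extended double-stranded 36-bp intergenic genomic probes and negative controls, bound GST-tagged P. falciparum DNA-binding domains were detected with Alexa488 anti-GST antibody and scanned at 488 nm. The domains had been expressed in E. coli, and binding took place in 1× PBS with 1% milk, 0.2 mg/ml BSA, 0.5% salmon testes DNA and 0.03% Triton X-100. Binding intensity is the highest Masliner-normalised natural-log median intensity across replicate spots of either probe orientation.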
In the case of “GAAATACATTTTAAAAAATAAGTAATTATAAAATAA [TGCATGCA_negctrl_site303]”, the “gcPBM binding intensity (ln)” value worked out at 8.42 ± 0.47. Under “GATACCTATAGACACACACACATACCTATATACATA [CACACA_site7586]” stands 9.66 ± 0.47; under “TTTATAAATAAACACACACACATGTGAACATAAAAA [CACACA_site5110]”, 9.47 ± 0.35; under “ATTCATCCAATAATGTGAATTATCATGATAAACTTA [TGCATGCA_negctrl_site406]”, 8.62 ± 0.33. Under “ATCAAAATTGTCATTACACACCTTTATTTTTAGAAT [CACACA_site1813]” stands 8.77 ± 0.42; under “ATATATGTAAATGAATGTACATTATTTTATATATTA [XGTACX_site8460]”, 8.82 ± 0.42. Under “ATTATTCTATATGAAACATGCATACATTTGTATTTT [TGCATGCA_site823]” stands 8.93 ± 0.39. As to “TACAACTTAATATGTACACACAAATATATATATATA [CACACA_site5138]”, the “gcPBM binding intensity (ln)” value came out at 9.36 ± 0.28. Under “AAAATAATAAAAAACTGTACGAATTAAAAATTAACA [XGTACX_site8454]” stands 8.65 ± 0.42; under “TTGGATTTTTCCTATGAACACACGGGGTTACAATTA [CACACA_site449]”, 8.87 ± 0.26. With “TCCAATAATTTATAAAAAAAAAAAGGGAAAATGTAT [TGCATGCA_negctrl_site492]”, the “gcPBM binding intensity (ln)” value was found to be 8.41 ± 0.55. The value for “ATATATTTATTATTAACATGCAATCATTATATATAA [TGCATGCA_site404]” was 8.44 ± 0.39. Under “TTAATATGAGAATAATGTACAAGAAAATATTACATA [XGTACX_site6609]” stands 8.6 ± 0.5; under “CTTTCATTTCTATCTACACACATATTTTTTCCAAGT [CACACA_site2972]”, 9.12 ± 0.5; under “GCGTGCGTGTACTTAACACACATAATATGTATTTAT [CACACA_site1247]”, 9.33 ± 0.3. “TTTTTTTTTCCCCCATGTACATAAATAAGTATATCT [XGTACX_site6965]”: the “gcPBM binding intensity (ln)” value is 8.76 ± 0.13. Under “TTAATGTACAGACACCCACACACAAACAAATATATA [CACACA_site8888]” stands 9.57 ± 0.3. On to “AAAAGAAAAAAAAGTACACACATGTATATTAAGCGT [CACACA_site5402]”, for which the “gcPBM binding intensity (ln)” value was 9.38 ± 0.42. The value for “TAACTTAATTTTAATGCACACAATTTATATATATAT [CACACA_site6022]” was 8.89 ± 0.36; that for “AAAAATATATATATATATATATATATATTATTTTTT [TGCATGCA_negctrl_site378]” was 8.96 ± 0.19. As for “TATATATATAAATACAGTACATATATAATATTTTGA [XGTACX_site637]”, the “gcPBM binding intensity (ln)” value is 8.64 ± 0.41. For “ATATGTACTATACGCACACACACTCACATATATATA [CACACA_site3239]”, the “gcPBM binding intensity (ln)” value is 9.77 ± 0.35.

With “AATTATATGAAATAAACACACATATGCAATATTGCA [CACACA_site6988]”, the “gcPBM binding intensity (ln)” value is 8.87 ± 0.4. Under “TTCAAGATTTATTATACACACATATTAAAATATATA [CACACA_site4479]” stands 8.6 ± 0.39; under “AAACATTTTCATTTGACACACATCATATATTTATAT [CACACA_site1794]”, 9.11 ± 0.42; under “AAAAAATTATTATGAACACACATTTATTATATTCAT [CACACA_site1566]”, 8.71 ± 0.54. The value for “AATCTATCAAAGTGTACATGCAATAAAAAAAAAAAA [TGCATGCA_site103]” was 8.87 ± 0.45. The value for “TTTTTTTATTAATGTAGTACAATATAATGTTATATT [XGTACX_site2295]” was 8.61 ± 0.6; that for GAGGTCTTTTTTAATGTGCACATATATATATATATA was 9.54 ± 0.16; that for “TTTTTTTTTTTTTTTACACACTCCAATAAAAAAGAA [CACACA_site2119]” was 8.27 ± 0.3. As for “TATAAAAATATATTTACACACTATAAATATCGAAAG [CACACA_site6896]”, the “gcPBM binding intensity (ln)” value turned out to be 8.68 ± 0.4. The value for “TAATTTATAAATATAATATTTATGTATATGATGTTT [CACACA_negctrl_site464]” was 8.64 ± 0.45; that for “ATTATATATATCAGGTGTACGTAAAAAAAATGGACG [XGTACX_site1028]” was 9.1 ± 0.37; that for “AACGATTTACATCACTGTACTAATGATATACCTCAT [XGTACX_site7463]” was 9.14 ± 0.39. As to “TATATATATATATATTGTACTATATAGTATCTTTTT [XGTACX_site1646]”, the “gcPBM binding intensity (ln)” value stood at 9.46 ± 0.2.

Turning to “TATATATTTTCTTTTGCACACTGTTTTCCTTTTTTT [CACACA_site2739]”, the “gcPBM binding intensity (ln)” value amounted to 9.3 ± 0.47.

Consider “TTCGTAATTTATATCACACACATATATATATAATAA [CACACA_site3115]”, for which the “gcPBM binding intensity (ln)” value stood at 8.89 ± 0.38. For the sequence TACCCTTGCATGTAGGTGCAATTTTTTTTTTTTTTT, the “gcPBM binding intensity (ln)” value was found to be 8.76 ± 0.43. In the case of “CAACTTTATACATATAGTACAAGTTATATTTTATTA [XGTACX_site6651]”, the “gcPBM binding intensity (ln)” value was 8.49 ± 0.47.

As to “TAATAATAGTACTGACATCAAAATCTTATTAAAAAT [GTGCAC_negctrl_site308]”, the “gcPBM binding intensity (ln)” value was found to be 8.61 ± 0.42.

For “TTCTTTTTTATTTTTCAACACACATAATAAATTTCT [CACACA_site8253]”, the “gcPBM binding intensity (ln)” value was found to be 8.79 ± 0.43. The value for “CTTTCCATATATGATAGTACACGATAAAAAAAAAAA [XGTACX_site5772]” was 8.46 ± 0.43. As to “AAAGAAATAAGGTGCACACATATACATATATATATA [CACACA_site429]”, the “gcPBM binding intensity (ln)” value came to 9.71 ± 0.23. Regarding “TTTAAAAAAAATTCATATTATATATATATATATTAT [CACACA_negctrl_site1733]”, the “gcPBM binding intensity (ln)” value was 8.49 ± 0.47.
